# Measured values taken from PubChem BioAssay AID624171 (National Center for Advancing Translational Sciences (NCATS), 2012).
# Among all 410,000 compounds or so, about 1,200 (0.29%) were called active. Inconclusive means that the source gave no clear call. Such entries were picked first, then a sample of the others. Calls come from the whole dose curve; as a rule, active = well fitted activation curve with a large enough effect; inconclusive = small, poorly fitted or top-dose-only effect; inactive = flat fitted curve, though single readings scatter. Potencies of inconclusive entries are doubtful fits and often do not repeat. Some compounds were tested as several samples or in several runs, with calls that do not always agree.
# Assay: qHTS of Nrf2 Activators; note: nearly all actives have a fitted effect of over 65% in size; for activation: % of control where 0% means no effect
# Details: AREc32 ARE-luciferase reporter (MCF7-derived line), luminescence, 24 h; activation: at 46.1 µM (top of the series)
# Method in brief: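 Quantitative high-throughput format: AREc32 reporter cells, 1000 per well, received compound by pin transfer and were incubated 24 hr at 37 deg C, 5% CO2, before Steady-Glo luminescence detection.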
# Potency is the fitted concentration of half-maximal effect; tags give direction and shape of the fitted curve.
SMILES,Potency,activation
COC(=O)c1c(NC(=O)Cc2cccs2)sc(C)c1C,"inconclusive: 12.6 µM [activator, single point]",
CC(=O)c1cc(C(=O)Nc2cccc(C)c2)c2ccccn12,"inconclusive: 12.6 µM [activator, partial curve]",
COc1ccc(N2CCN(C(=O)CCS(=O)(=O)c3cc4c(cc3Cl)NC(=O)CO4)CC2)cc1,,inactive: 0.301%
Cc1ccccc1OCCNC(=O)CNC(=O)c1ccccc1O,,inactive: -0.54%
c1ccc(-c2cn(-c3ccccc3)c3ncnc(N4CCCCC4)c23)cc1,,inactive: -1.43%
Cc1ccc(NC(=O)c2ccc(NS(=O)(=O)/C=C/c3ccccc3)cc2)nc1,,inactive: 2.12%
CCCc1nc2oc3ccccc3c(=O)c2c(=O)n1-c1ccc(C)cc1,active: 11.2 µM,
COc1cc(/C=N/n2cnnc2)ccc1OS(=O)(=O)c1ccccc1[N+](=O)[O-],active: 12.6 µM,
CCOC(=O)c1ccccc1N/C=C/C(=O)c1cccs1,active: 6.31 µM,
CC(=O)Oc1ccc(-c2csc(Nc3ccccn3)n2)cc1,"inconclusive: 17.8 µM [activator, partial curve, poor fit]",
COc1cccc(NC(=O)COC(=O)/C=C/c2ccco2)c1,"inconclusive: 15.8 µM [activator, partial curve, poor fit]",
O=C(O)c1[nH]c2ccc(Cl)cc2c1CCN1C(=O)c2ccccc2C1=O,"inconclusive: 22.4 µM [activator, single point]",
CCN1C/C(=C/c2ccc(N3CCOCC3)cc2)C(=O)/C(=C/c2ccc(N3CCOCC3)cc2)C1,"inconclusive: 3.16 µM [activator, partial curve, poor fit]",
O=C(N/N=C/c1ccco1)c1ccc(Br)o1,"inconclusive: 6.31 µM [activator, partial curve]",
Cc1nnc(NC(=O)c2nc(S(=O)(=O)Cc3ccccc3)ncc2Cl)s1,"inconclusive: 5.62 µM [activator, full curve]",
COc1ccccc1-[n+]1c(C)cc(/C=C2\Sc3ccccc3N2C)cc1C,,inactive: -2.1%
O=C(/C=C/c1ccco1)Nc1ccc2nn(-c3ccccc3)nc2c1,"inconclusive: 2.82 µM [activator, full curve, poor fit]",
Cc1cccc(-c2n[nH]c(=S)n2/N=C/C=C/c2ccco2)c1,active: 2.51 µM,
Cc1nc(SCc2nc3c([N+](=O)[O-])cccc3[nH]2)c2oc3ccccc3c2n1,"inconclusive: 0.562 µM [activator, full curve, poor fit]",
Cc1nn(C)c(C)c1NC(=O)CCl,"inconclusive: 17.8 µM [activator, single point]",
O=C(Nc1nnc(-c2ccccc2F)s1)Nc1ccccc1F,active: 8.91 µM,
CC(=O)c1c(C)[nH]c(C(=O)Nc2nc(-c3ccc(Cl)cc3)cs2)c1C,,inactive: 0.686%
COc1ccc(/C=C/C(=O)C2C(=O)C=C(C)OC2=O)cc1O (stereo unspecified),"inconclusive: 17.8 µM [activator, single point]",
N#C/C(=C\c1ccc(N2CCOCC2)o1)c1ccccc1,active: 14.1 µM,
COC(=O)c1c(NC(=O)CN2C(=O)NC3(CCCCC3C)C2=O)sc2c1CCC2 (stereo unspecified),,inactive: -0.359%
O=C(CCCN1C(=O)/C(=C/c2cccs2)SC1=S)Nc1cccc(O)c1,"inconclusive: 15.8 µM [activator, single point]",

SMILES,Potency,activation
O=S(=O)(Nc1ccc(Cc2ccncc2)cc1)c1ccc(Br)cc1,,inactive: 3.02%
CC(=O)N1CCC2(CC1)OC(=O)C(C)=C2C(=O)Nc1cccc(Cl)c1C,,inactive: 0.237%
COc1ccc(-c2csc3nc(C)nc(N4CCCCC4)c23)cc1OC,active: 15.8 µM,
O=c1c2sc3ccccc3c2n(Cc2ccccc2F)c(=O)n1Cc1ccccc1,,inactive: -0.17%
COc1cc(CN2CCC(C(=O)NC(c3ccc(F)cc3)c3ccc4ccccc4n3)CC2)cc(OC)c1 (stereo unspecified),,inactive: -4.16%
Cc1cnc(C(=O)OC(C)C(=O)NCc2ccccc2)cn1 (stereo unspecified),,inactive: 0.147%
Cc1nc(C)c(-c2ccc(SCC(=O)Nc3ccc(Cl)c(Cl)c3)nn2)s1,,inactive: 1.19%
CC1=C(C(=O)N(C)C)CC(CC(=O)NCc2cccc3ccccc23)C(=O)N1CCC1=CCCCC1 (stereo unspecified),,inactive: -0.0615%
CSC(=S)N/N=C/c1ccccc1,"inconclusive: 22.4 µM [activator, single point]",
N#Cc1cc2c(nc1SCC1COc3ccccc3O1)CCC2 (stereo unspecified),,inactive: 12%
COc1ccc(Cl)cc1NC(=O)c1cc(-c2ccccc2O)n[nH]1,"inconclusive: 6.31 µM [activator, full curve]",
O=C1/C(=C/c2ccco2)Cc2ccccc21,"inconclusive: 6.31 µM [activator, partial curve, poor fit]",
CCCOC(=O)/C(=C\c1ccc([N+](=O)[O-])o1)NC(=O)c1ccccc1,"inconclusive: 3.16 µM [activator, partial curve, poor fit]",
NC(=O)c1oc2ccccc2c1NC(=O)c1ccc([N+](=O)[O-])o1,"inconclusive: 3.55 µM [activator, single point]",
O=S(=O)(C/C(=C/CO)S(=O)(=O)c1ccccc1)c1ccccc1,"inconclusive: 4.47 µM [activator, single point]",
CCOC(=O)c1c(NC(=O)CCS(=O)(=O)c2ccccc2)sc2c1CC(C)(C)NC2(C)C,"inconclusive: 31.6 µM [activator, single point]",
C[C@]1(CC/C(=C/CO)CO)[C@H](CO)CC[C@@]23COC(=O)C2=CCC[C@@H]31,"inconclusive: 14.1 µM [activator, single point]",
CC(=O)Nc1ccc(Oc2sc(C(=O)c3ccccc3)c(N)c2C#N)cc1,active: 8.91 µM,
COc1cc(C(=O)Nc2ccccn2)cc(OC)c1OC,"inconclusive: 12.6 µM [activator, single point]",
COc1ccc(Nc2c3c(nc4ccc(NC(=O)/C=C/c5cc(OC)c(OC)c(OC)c5)cc24)CCCC3)cc1OC,"inconclusive: 5.62 µM [activator, single point]",
Cc1ccccc1-c1cc2nc(Oc3cccc4ccccc34)n(C)c(=O)c2s1,"inconclusive: 10 µM [activator, partial curve]",
Fc1cccc(Cl)c1/C=C/c1cnc2ccccc2n1,active: 3.55 µM,
O=[N+]([O-])c1ccccc1S(=O)(=O)Oc1ccc(/C=N/n2cnnc2)cc1,"inconclusive: 22.4 µM [activator, single point]",
CCSc1cnn(-c2ccccc2)c(=O)c1Cl,"inconclusive: 17.8 µM [activator, partial curve, poor fit]",
Cc1ccc(OC(C)C(=O)Nc2cc(C)on2)cc1 (stereo unspecified),,inactive: -0.0746%
O=c1c2ccccc2sn1-c1ccccc1F,"inconclusive: 31.6 µM [activator, single point]",

SMILES,Potency,activation
CN(C)c1ccc(CN(CC2CCCO2)C(=O)COc2ccccc2Cl)cc1 (stereo unspecified),,inactive: 2.94%
CC(C)c1ccc(N2C(=NC(=O)C3CC3)SC3CS(=O)(=O)CC32)cc1 (stereo unspecified),,inactive: 0.463%
Cc1ccc2nc(NC(=O)c3ccccc3F)sc2c1,"inconclusive: 3.16 µM [activator, partial curve, poor fit]",
CCn1c(Sc2nc(C)nc3scc(-c4cccs4)c23)n[nH]c1=O,"inconclusive: 17.8 µM [activator, single point]",
CCCCN(C(=O)c1cc(-c2ccco2)nc2ccccc12)c1c(N)n(CCCC)c(=O)[nH]c1=O,"inconclusive: 22.4 µM [activator, single point]",
Cc1ccc(C)c(/C=N/Nc2ccccn2)c1,active: 8.91 µM,
CCOc1ncccc1-c1nc(-c2cccs2)no1,active: 10 µM,
Cn1nc(-c2ccc(Cl)cc2)c2cc(C(=O)NCc3ccco3)sc21,"inconclusive: 2.51 µM [activator, full curve]",
CCn1c(C(=O)Nc2ccsc2C(=O)OC)cc2sc(Cl)cc21,"inconclusive: 31.6 µM [activator, single point]",
Fc1ccc2cnc(-c3ccccc3)cc2c1,"inconclusive: 12.6 µM [activator, single point]",
CCN(CCNC(=O)C1CCN(S(=O)(=O)c2c(C)noc2C)CC1)c1ccccc1,,inactive: -0.0971%
CCN(CC)C(=O)CN1C(=O)/C(=C/c2ccccc2)SC1=S,"inconclusive: 6.31 µM [activator, partial curve]",
Cc1c(C(=O)C(=O)N2c3ccc(F)cc3CCC2C)c2ccccc2n1C (stereo unspecified),,inactive: 0.0891%
O=C(Nc1cccc(S(=O)(=O)N2CCCC2)c1)c1cccnc1,,inactive: -0.112%
O=C1NN(c2ccc(F)cc2)C(=O)/C1=C\C=C\c1ccco1,"inconclusive: 11.2 µM [activator, partial curve]",
COc1ccc(-c2cc(C3CC3)nc3sc(C#N)c(N)c23)cc1,,inactive: -0.309%
Cc1ccsc1CN(C(=O)c1ccc(OCC(C)C)cc1)C1CCS(=O)(=O)C1 (stereo unspecified),,inactive: 2.9%
O=C(O)CCC(=O)Nc1sc2c(c1C(=O)Nc1ccccc1)CCCCC2,active: 14.1 µM,
O=[N+]([O-])c1c(NCCCO)cc(SCc2ccco2)c2nonc12,"inconclusive: 17.8 µM [activator, single point]",
CCCOc1ccc(C(=O)N(Cc2ccccc2Cl)C2CCS(=O)(=O)C2)cc1 (stereo unspecified),,inactive: 1.25%
Oc1cccc(/C=N/Nc2cccc3cccnc23)c1,"inconclusive: 3.55 µM [activator, single point]",
COCCCNC(=O)CCCn1c(SCC(=O)c2ccc(F)cc2)nc2c(sc3ccccc32)c1=O,,inactive: 0.304%
CCSc1cc(C)nc2c(-c3ccccc3)cnn12,active: 15.8 µM,
COc1cc(OC)c(OC)cc1CNC(=O)c1cc(=O)c2ccccc2o1,"inconclusive: 17.8 µM [activator, single point]",
